Laboratory results: patent US4985547A, “External skin care preparation” (Kao Corporation, priority 1987, dated 1991)
At least one read-out could not be matched to a standard name with certainty.

Tested on: skin roughness
Experiment: Score of skin roughness, visual ranking after two-week coating on cheeks
Assay type: in vivo, women
Conditions: Invention Product 1: vaseline and compound 3:1 by weight; two weeks; average; 0 = no roughness, 4 = severe
Excerpt: Compounds Ia1 -Ia18 prepared respectively in Referential Examples 1, 2 and 3 and following the procedures of these referential examples, compounds Ib1 -Ib5 prepared respectively in Referential Example 4 and following the procedure of the referential example, compounds Id1 -Id5 prepared respectively in Referential Example 5 and following the procedure of the referential example, compounds Ie1 -Ie4 prepared respectively in Referential Examples 6-9, and conventional compounds Ic1 -Ic13, Ie5 -Ie14 and II1 -II12 were used separately. Mixtures (Invention Products 1), each of which had been formulated by mixing vaseline and the compound (I or II) at a weight ratio of 3:1, and vaseline (Comparative Product 1) were evaluated in skin conductance and skin roughness by the following methods.
Chosen as volunteers in winter were 10 women of 20-50 years of old who had skin roughness on their both cheeks. Different external skin care preparations were coated separately on the left and right cheeks of each volunteer for two weeks. On the following day of the completion of the two-week coating test, tests were conducted with respect to the following properties.
Skin roughness was observed visually and ranked in accordance with the following standard. Each score was indicated by an average value.
Score Ranking of skin roughness
0 No skin roughness was observed.
1 Slight skin roughness was observed.
2 Skin roughness was observed.
3 Rather severe skin roughness was observed.
4 Severe skin roughness was observed.
Using separately the compounds used in Example 1, external skin care preparations (emulsified cosmetic preparations) of their corresponding compositions shown below in Table 2 were formulated. Their effects for the improvement of skin roughness were evaluated in the same manner as in Example 1.

CCCCCCCCCCCCCCCCOCC(CN(CCOP(=O)([O-])OCC[N+](C)(C)C)C(=O)CCCCCCCCCCCCCCC)OP(=O)([O-])OCC[N+](C)(C)C (stereo not shown) [Compound Ie14] was tested, and the “Score of skin roughness” value was 1.9.
